Results from the supplement of paper PMC8728848.
The list shows a part of the results.

Tests used:
Test in all cases: glycan array binding signal (z-score within array); higher = stronger binding
Conditions in all cases: glycan notation: IUPAC condensed, linker removed
[1] = biological target: Gal(b1-4)GlcNAc(b1-2)[Gal(b1-4)GlcNAc(b1-6)]Man(a1-6)[Gal(b1-4)GlcNAc(b1-2)Man(a1-3)]Man(b1-4)GlcNAc(b1-4)[Fuc(a1-6)]GlcNAc
Summary of the method: (§1)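 Negative Z-scores can be read as non-binding. The Z-score is calculated within each array and then averaged across arrays of one protein sequence at different concentrations or buffers and across linkers. Arrays, 3228 in all, were curated from the Consortium for Functional Glycomics database and kept only where the protein sequence was available.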

[2] = biological target: Gal(b1-4)GlcNAc(b1-2)[Gal(b1-4)GlcNAc(b1-6)]Man(a1-6)[GlcNAc(b1-4)][Gal(b1-4)GlcNAc(b1-2)Man(a1-3)]Man(b1-4)GlcNAc(b1-4)GlcNAc
Summary of the method: as §1

[3] = biological target: Gal(b1-4)GlcNAc(b1-2)[Gal(b1-4)GlcNAc(b1-6)]Man(a1-6)[GlcNAc(b1-4)][Gal(b1-4)GlcNAc(b1-2)[Gal(b1-4)GlcNAc(b1-4)]Man(a1-3)]Man(b1-4)GlcNAc(b1-4)[Fuc(a1-6)]GlcNAc
Summary of the method: as §1

[4] = biological target: Gal(b1-4)GlcNAc(b1-3)Gal(b1-3)GalNAc
Summary of the method: as §1

[5] = biological target: Gal(b1-4)GlcNAc(b1-3)Gal(b1-3)GlcNAc
Summary of the method: as §1

[6] = biological target: Gal(b1-4)GlcNAc(b1-3)Gal(b1-4)Glc
Summary of the method: as §1

[7] = biological target: Gal(b1-4)GlcNAc(b1-3)Gal(b1-4)GlcNAc
Summary of the method: as §1

[8] = biological target: Gal(b1-4)GlcNAc(b1-3)Gal(b1-4)GlcNAc(b1-2)Man(a1-3)[Gal(b1-4)GlcNAc(b1-3)Gal(b1-4)GlcNAc(b1-2)Man(a1-6)]Man(b1-4)GlcNAc(b1-4)GlcNAc
Summary of the method: as §1

[9] = biological target: Gal(b1-4)GlcNAc(b1-3)Gal(b1-4)GlcNAc(b1-2)Man(a1-3)[Gal(b1-4)GlcNAc(b1-3)Gal(b1-4)GlcNAc(b1-2)Man(a1-6)]Man(b1-4)GlcNAc(b1-4)[Fuc(a1-6)]GlcNAc
Summary of the method: as §1

[10] = biological target: Gal(b1-4)GlcNAc(b1-3)Gal(b1-4)GlcNAc(b1-2)[Gal(b1-4)GlcNAc(b1-3)Gal(b1-4)GlcNAc(b1-6)]Man(a1-6)[Gal(b1-4)GlcNAc(b1-3)Gal(b1-4)GlcNAc(b1-2)Man(a1-3)]Man(b1-4)GlcNAc(b1-4)GlcNAc
Summary of the method: as §1

[11] = biological target: Gal(b1-4)GlcNAc(b1-3)Gal(b1-4)GlcNAc(b1-2)[Gal(b1-4)GlcNAc(b1-3)Gal(b1-4)GlcNAc(b1-6)]Man(a1-6)[Gal(b1-4)GlcNAc(b1-3)Gal(b1-4)GlcNAc(b1-2)Man(a1-3)]Man(b1-4)GlcNAc(b1-4)[Fuc(a1-6)]GlcNAc
Summary of the method: as §1

[12] = biological target: Gal(b1-4)GlcNAc(b1-3)Gal(b1-4)GlcNAc(b1-3)Gal(b1-4)GlcNAc
Summary of the method: as §1

[13] = biological target: Gal(b1-4)GlcNAc(b1-3)Gal(b1-4)GlcNAc(b1-3)Gal(b1-4)GlcNAc(b1-2)Man(a1-3)[Gal(b1-4)GlcNAc(b1-3)Gal(b1-4)GlcNAc(b1-3)Gal(b1-4)GlcNAc(b1-2)Man(a1-6)]Man(b1-4)GlcNAc(b1-4)GlcNAc
Summary of the method: as §1

[14] = biological target: Gal(b1-4)GlcNAc(b1-3)Gal(b1-4)GlcNAc(b1-3)Gal(b1-4)GlcNAc(b1-2)Man(a1-3)[Gal(b1-4)GlcNAc(b1-3)Gal(b1-4)GlcNAc(b1-3)Gal(b1-4)GlcNAc(b1-2)Man(a1-6)]Man(b1-4)GlcNAc(b1-4)[Fuc(a1-6)]GlcNAc
Summary of the method: as §1

[15] = biological target: Gal(b1-4)GlcNAc(b1-3)Gal(b1-4)GlcNAc(b1-3)Gal(b1-4)GlcNAc(b1-2)[Gal(b1-4)GlcNAc(b1-3)Gal(b1-4)GlcNAc(b1-3)Gal(b1-4)GlcNAc(b1-6)]Man(a1-6)[Gal(b1-4)GlcNAc(b1-3)Gal(b1-4)GlcNAc(b1-3)Gal(b1-4)GlcNAc(b1-2)Man(a1-3)]Man(b1-4)GlcNAc(b1-4)[Fuc(a1-6)]GlcNAc
Summary of the method: as §1

[16] = biological target: Gal(b1-4)GlcNAc(b1-3)Gal(b1-4)GlcNAc(b1-3)Gal(b1-4)GlcNAc(b1-3)Gal(b1-4)GlcNAc(b1-2)Man(a1-3)[Gal(b1-4)GlcNAc(b1-3)Gal(b1-4)GlcNAc(b1-3)Gal(b1-4)GlcNAc(b1-3)Gal(b1-4)GlcNAc(b1-2)Man(a1-6)]Man(b1-4)GlcNAc(b1-4)GlcNAc
Summary of the method: as §1

[17] = biological target: Gal(b1-4)GlcNAc(b1-3)Gal(b1-4)GlcNAc(b1-3)Gal(b1-4)GlcNAc(b1-3)Gal(b1-4)GlcNAc(b1-2)Man(a1-3)[Gal(b1-4)GlcNAc(b1-3)Gal(b1-4)GlcNAc(b1-3)Gal(b1-4)GlcNAc(b1-3)Gal(b1-4)GlcNAc(b1-2)Man(a1-6)]Man(b1-4)GlcNAc(b1-4)[Fuc(a1-6)]GlcNAc
Summary of the method: as §1

[18] = biological target: Gal(b1-4)GlcNAc(b1-3)Gal(b1-4)GlcNAc(b1-3)Gal(b1-4)GlcNAc(b1-3)Gal(b1-4)GlcNAc(b1-2)[Gal(b1-4)GlcNAc(b1-3)Gal(b1-4)GlcNAc(b1-3)Gal(b1-4)GlcNAc(b1-3)Gal(b1-4)GlcNAc(b1-6)]Man(a1-6)[Gal(b1-4)GlcNAc(b1-3)Gal(b1-4)GlcNAc(b1-3)Gal(b1-4)GlcNAc(b1-3)Gal(b1-4)GlcNAc(b1-2)Man(a1-3)]Man(b1-4)GlcNAc(b1-4)[Fuc(a1-6)]GlcNAc
Summary of the method: as §1

[19] = biological target: Gal(b1-4)GlcNAc(b1-3)Gal(b1-4)GlcNAc(b1-3)Gal(b1-4)GlcNAc(b1-3)Gal(b1-4)GlcNAc(b1-3)Gal(b1-4)GlcNAc(b1-2)Man(a1-3)[Gal(b1-4)GlcNAc(b1-3)Gal(b1-4)GlcNAc(b1-3)Gal(b1-4)GlcNAc(b1-3)Gal(b1-4)GlcNAc(b1-3)Gal(b1-4)GlcNAc(b1-2)Man(a1-6)]Man(b1-4)GlcNAc(b1-4)GlcNAc
Summary of the method: as §1

[20] = biological target: Gal(b1-4)GlcNAc(b1-3)Gal(b1-4)GlcNAc(b1-3)Gal(b1-4)GlcNAc(b1-3)Gal(b1-4)GlcNAc(b1-3)Gal(b1-4)GlcNAc(b1-2)Man(a1-3)[Gal(b1-4)GlcNAc(b1-3)Gal(b1-4)GlcNAc(b1-3)Gal(b1-4)GlcNAc(b1-3)Gal(b1-4)GlcNAc(b1-3)Gal(b1-4)GlcNAc(b1-2)Man(a1-6)]Man(b1-4)GlcNAc(b1-4)[Fuc(a1-6)]GlcNAc
Summary of the method: as §1

[21] = biological target: Gal(b1-4)GlcNAc(b1-3)Gal(b1-4)GlcNAc(b1-3)Gal(b1-4)GlcNAc(b1-3)Gal(b1-4)GlcNAc(b1-3)Gal(b1-4)GlcNAc(b1-2)[Gal(b1-4)GlcNAc(b1-3)Gal(b1-4)GlcNAc(b1-3)Gal(b1-4)GlcNAc(b1-3)Gal(b1-4)GlcNAc(b1-3)Gal(b1-4)GlcNAc(b1-6)]Man(a1-6)[Gal(b1-4)GlcNAc(b1-3)Gal(b1-4)GlcNAc(b1-3)Gal(b1-4)GlcNAc(b1-3)Gal(b1-4)GlcNAc(b1-3)Gal(b1-4)GlcNAc(b1-2)Man(a1-3)]Man(b1-4)GlcNAc(b1-4)[Fuc(a1-6)]GlcNAc
Summary of the method: as §1

[22] = biological target: Gal(b1-4)GlcNAc(b1-3)Gal(b1-4)GlcNAc(b1-3)Gal(b1-4)GlcNAc(b1-3)Gal(b1-4)GlcNAc(b1-3)Gal(b1-4)GlcNAc(b1-3)Gal(b1-4)GlcNAc(b1-2)Man(a1-3)[Gal(b1-4)GlcNAc(b1-3)Gal(b1-4)GlcNAc(b1-3)Gal(b1-4)GlcNAc(b1-3)Gal(b1-4)GlcNAc(b1-3)Gal(b1-4)GlcNAc(b1-3)Gal(b1-4)GlcNAc(b1-2)Man(a1-6)]Man(b1-4)GlcNAc(b1-4)GlcNAc
Summary of the method: as §1

[23] = biological target: Gal(b1-4)GlcNAc(b1-3)Gal(b1-4)GlcNAc(b1-3)GalNAc
Summary of the method: as §1

B1: HML-Native (Hypnea musciformis), P84871 (protein)
chain: QKFCTLDIAPVCCQIVIGGGMYTAGNACMCEGFVSGVGRCENPKECPCTREAQIPSCCSSRWGLVSVTGKCACDCLGGTVAFPEPCPSPY
For B1, which “glycan array binding signal (z-score)” value [1] is on record?
Its value is 4.48.

And the “glycan array binding signal (z-score)” value [2]?
The value was -0.262.

What about the “glycan array binding signal (z-score)” value [3] of the same binder?
Its value is -0.041.

And the “glycan array binding signal (z-score)” value [4]?
Its value is -0.238.

And the “glycan array binding signal (z-score)” value [5]?
Its value is -0.365.

And the “glycan array binding signal (z-score)” value [6]?
The value was -0.207.

What about the “glycan array binding signal (z-score)” value [7] of the same binder?
The value was -0.286.

What about the “glycan array binding signal (z-score)” value [8] of the same binder?
Its value is -0.152.

What about the “glycan array binding signal (z-score)” value [9] of the same binder?
The value was 5.52.

What about the “glycan array binding signal (z-score)” value [10] of the same binder?
The value was 0.072.

What about the “glycan array binding signal (z-score)” value [11] of the same binder?
The value was 2.88.

And the “glycan array binding signal (z-score)” value [12]?
Its value is -0.179.

And the “glycan array binding signal (z-score)” value [13]?
Its value is -0.215.

What about the “glycan array binding signal (z-score)” value [14] of the same binder?
The value was 4.93.

And the “glycan array binding signal (z-score)” value [15]?
The value was 2.23.

And the “glycan array binding signal (z-score)” value [16]?
The value was -0.112.

And the “glycan array binding signal (z-score)” value [17]?
Its value is 4.9.

What about the “glycan array binding signal (z-score)” value [18] of the same binder?
The value was 2.48.

What about the “glycan array binding signal (z-score)” value [19] of the same binder?
The value was -0.175.

What about the “glycan array binding signal (z-score)” value [20] of the same binder?
The value was 4.8.

And the “glycan array binding signal (z-score)” value [21]?
Its value is 2.48.

And the “glycan array binding signal (z-score)” value [22]?
Its value is -0.227.

And the “glycan array binding signal (z-score)” value [23]?
Its value is -0.257.
